Experimental data published in PubChem BioAssay AID624417 (National Center for Advancing Translational Sciences (NCATS), 2012).
Hit rate of the full screen: of about 410,000 compounds, about 6,400 (1.6%) were called active. The inconclusive results got no clear call from the source; some entries with a clear call stand among them for comparison. Calls follow the shape of the dose curve; as a rule, active = well fitted inhibition curve with a large enough effect; inconclusive = small, poorly fitted or top-dose-only effect; inactive = no such curve, though single readings can be large or run the other way. No potency is given beside an inconclusive call; the fits are too rough.

Biological target: Glucagon-like peptide 1 receptor (Homo sapiens) (UniProt P43220)
UniProt P43220, sequence (P43220 whole entry, looked up): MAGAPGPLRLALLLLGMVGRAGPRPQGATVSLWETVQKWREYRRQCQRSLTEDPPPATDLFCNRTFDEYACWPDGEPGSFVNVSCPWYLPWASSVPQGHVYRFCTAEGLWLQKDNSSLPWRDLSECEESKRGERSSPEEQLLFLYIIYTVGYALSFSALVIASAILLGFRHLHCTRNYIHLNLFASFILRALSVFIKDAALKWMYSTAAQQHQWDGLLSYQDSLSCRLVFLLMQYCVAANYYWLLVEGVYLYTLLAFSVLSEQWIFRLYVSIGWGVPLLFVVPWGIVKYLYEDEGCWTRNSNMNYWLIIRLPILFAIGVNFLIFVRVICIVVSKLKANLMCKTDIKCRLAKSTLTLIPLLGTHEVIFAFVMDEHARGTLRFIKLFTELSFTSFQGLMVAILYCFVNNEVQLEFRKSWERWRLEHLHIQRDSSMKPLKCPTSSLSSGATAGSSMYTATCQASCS
Experiment: qHTS of GLP-1 Receptor Inverse Agonists (Inhibition Mode); also: nearly all actives have a fitted effect of over 55% in size
Conditions: HEK293 GLP-1R CRE-luciferase, luminescence, 24 h, GLP-1R form is constitutively active; activity change, negative = inhibition: at 38.3 µM (top of the series) unless noted
Method in brief: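 qHTS in 1536-well format: reporter HEK293 cells expressing constitutive GLP-1R activity in DMEM + 10% Nu serum, 24 hr with compounds at 37 deg C, luminescence read after 12 min with detection reagent.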
% is scaled to controls: 0 for no effect and ±100 for the full control effect; potency is read from the fitted curve at half-maximal effect; tags tell the direction and shape of the fitted curve.

| SMILES | Potency | activity change, negative = inhibition |
| --- | --- | --- |
| O=C(NCc1cccs1)c1ccc2c(c1)sc1nc(-c3ccccc3)cn12 | inactive |  |
| Cc1cc(C(=O)COc2ccccc2C(N)=O)c(C)n1CC1CCCO1 (stereo not given) |  | inactive: -26.2% [at 7.66 µM] |
| CCN(c1ccccc1)S(=O)(=O)c1ccc(C(=O)N2CCN(c3ccccc3)CC2)cc1 | inconclusive [inhibitor, partial curve, poor fit] |  |
| CN(c1ccc(C(=O)COC(=O)C2CC2)cc1)S(C)(=O)=O | inactive |  |
| CO/N=C1\CCCc2c(C(=O)NN)sc(SC)c21 | inconclusive [inhibitor, single point] |  |
| O=C(CN(c1ccc2c(c1)OCCO2)S(=O)(=O)c1ccccc1)NCc1ccc(Cl)cc1 | inconclusive [inhibitor, single point] |  |
| COc1ccccc1CN1CC(C(=O)NCCc2ccc(Cl)cc2)CC1=O (stereo not given) | inconclusive [inhibitor, partial curve, poor fit] |  |
| Cc1ccc(-c2c(C(=O)NC(C)C)oc(=O)c3ccccc23)cc1 | inconclusive [inhibitor, single point] |  |
| Cc1sc(NC(=O)c2ccccc2)c(C#N)c1-c1ccccc1 | inconclusive [inhibitor, single point] |  |
| COc1cc(NC(=S)Nc2ccc(Br)cc2Cl)c(OC)cc1Cl | inconclusive [inhibitor, partial curve, poor fit] |  |
| CC(C)(C)c1ccc(OCCC(=O)Nc2cccc(S(=O)(=O)N3CCOCC3)c2)cc1 | inconclusive [inhibitor, partial curve, poor fit] |  |
| CCCCNC(=O)c1onc(CSc2cc(C)ccc2C)c1C(=O)O | inconclusive [inhibitor, single point] |  |
| Cc1occc1C(=O)NC1CCCc2ccccc21 (stereo not given) | inconclusive [inhibitor, single point] |  |
| CCCOc1ccc(C(=O)N(Cc2ccc(Cl)cc2)Cc2ccco2)cc1 | inconclusive [inhibitor, single point] |  |
| O=C(Nc1cccc(F)c1)C1CCN(S(=O)(=O)c2cccc3nonc23)CC1 | inconclusive [inhibitor, single point] |  |
| CC(C)OCCCNC(=O)CN1C(=O)/C(=C/c2ccccc2)Sc2ccccc21 | inconclusive [inhibitor, single point] |  |
| Clc1ccc(C2=NNC(=NCc3ccccc3)SC2)cc1 | inconclusive [inhibitor, single point] |  |
| CCCC(O)(c1ccc(OC)cc1)C(CN1CCOCC1)c1ccccc1 (stereo not given) | inconclusive [inhibitor, single point] |  |
| Cc1ccc(CSc2nnc(SCC(=O)N/N=C/c3c[nH]c4ccccc34)s2)cc1 |  | inactive: -13% [at 0.307 µM] |
| Oc1ccc(C2=NN(c3ccccc3)C(c3ccc(F)cc3)C2)cc1 (stereo not given) | inconclusive [inhibitor, single point] |  |

| SMILES | Potency | activity change, negative = inhibition |
| --- | --- | --- |
| O=C(NNC(=S)NC(=O)c1ccccc1[N+](=O)[O-])c1ccccc1O | inconclusive [inhibitor, partial curve, poor fit] |  |
| COc1ccc(C(c2nnnn2Cc2ccccc2)N2CCN(c3ccccc3)CC2)cc1 (stereo not given) | inconclusive [inhibitor, partial curve, poor fit] |  |
| Cc1cc(C)c(C2=NOC3C4CCC(C4)C23)c(C)c1 (stereo not given) | inconclusive [inhibitor, partial curve, poor fit] |  |
| O=C(CC(c1ccccc1)c1ccccc1)OCn1nnc2ccccc2c1=O | inconclusive [inhibitor, single point] |  |
| O=C(Nc1ccccc1)OCCCc1ccccc1 | inconclusive [inhibitor, single point] |  |
| COC(=O)c1ccc(-c2nc(-c3cccs3)no2)cc1 | inconclusive [inhibitor, full curve] |  |
| COc1ccc(S(=O)(=O)NCCC(=O)NC2CCCCCCC2)cc1 | inconclusive [inhibitor, full curve, poor fit] |  |
| O=C(COC(=O)c1ccccc1)Nc1cc(Cl)ccc1Oc1ccccc1 | inconclusive [inhibitor, partial curve, poor fit] |  |
| COc1ccccc1C(CNc1nc(C(F)(F)F)nc2ccccc12)N(C)C (stereo not given) | inconclusive [inhibitor, partial curve, poor fit] |  |
| Cc1ccc(S(=O)(=O)N(Cc2nc(-c3cccc(C)c3)no2)C2CCCCC2)cc1 | active: 10 µM |  |
| Cc1ccc(N(C)C(=O)N2CCN(S(=O)(=O)c3ccc(C)cc3)CC2)cc1 | inconclusive [inhibitor, single point] |  |
| O=C(COCc1cc(-c2ccc3c(c2)OCO3)on1)N1CCN(c2cccc(Cl)c2)CC1 | inconclusive [inhibitor, partial curve, poor fit] |  |
| CCOC(=O)c1c(C(=O)OCC)c(C)n(N2C(=O)CSC2=S)c1C | inactive |  |
| CCN1CCN(C(=O)c2cnn(-c3cccc(Cl)c3)c2C2CCN(C(=O)OC(C)(C)C)CC2)CC1 | inactive |  |
| Cc1cc(=O)oc(C)c1C(=O)N1CCN(C(c2ccccc2)c2ccccc2)CC1 | inconclusive [inhibitor, single point] |  |
| COc1ccc(/C=N/Nc2ncc(C(F)(F)F)cc2Cl)cc1OC | inconclusive [inhibitor, single point] |  |
| CCOC(=O)N1CCC(NC(=O)CS(=O)Cc2nc(-c3ccc(Cl)cc3)oc2C)CC1 (stereo not given) | inconclusive [inhibitor, partial curve, poor fit] |  |
| CCOc1ccccc1NC(=O)C(CC(C)C)NS(=O)(=O)c1ccc2c(c1)oc(=O)n2C (stereo not given) | inactive |  |
| FC(F)(F)c1ccccc1CN1CCCC(N2CCN(c3ccccc3)CC2)C1 (stereo not given) | inconclusive [inhibitor, partial curve, poor fit] |  |
| O=C(c1cc2ccccc2cc1OCC(O)CN1CCCCC1)N1CCCCC1 (stereo not given) | inconclusive [inhibitor, single point] |  |
